Measured values reported in PubChem BioAssay AID488969 (Vanderbilt High Throughput Screening Facility, 2010).
The full ranking holds about 110,000 compounds; the median of “z-score” is about -0.1, and the highest 2% start at about 2. This is one part of the list. The source made the active and inactive calls.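 How the source made its calls: active means z-score in the third read window above 3 or below -3; inactive means the rest.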

molecular target: Metabotropic glutamate receptor 8 (Rattus norvegicus) (UniProt P70579); assay: rat mGluR8 modulators via GIRK flux, primary screen, cell-based, thallium flux, HTS (AID 488969); details: HEK293 rat mGluR8, GIRK (G protein-gated inwardly rectifying potassium channel) thallium flux, FluoZin2; at 10 µM; stronger effect = higher value
Sequence of UniProt P70579 (P70579 whole entry, looked up): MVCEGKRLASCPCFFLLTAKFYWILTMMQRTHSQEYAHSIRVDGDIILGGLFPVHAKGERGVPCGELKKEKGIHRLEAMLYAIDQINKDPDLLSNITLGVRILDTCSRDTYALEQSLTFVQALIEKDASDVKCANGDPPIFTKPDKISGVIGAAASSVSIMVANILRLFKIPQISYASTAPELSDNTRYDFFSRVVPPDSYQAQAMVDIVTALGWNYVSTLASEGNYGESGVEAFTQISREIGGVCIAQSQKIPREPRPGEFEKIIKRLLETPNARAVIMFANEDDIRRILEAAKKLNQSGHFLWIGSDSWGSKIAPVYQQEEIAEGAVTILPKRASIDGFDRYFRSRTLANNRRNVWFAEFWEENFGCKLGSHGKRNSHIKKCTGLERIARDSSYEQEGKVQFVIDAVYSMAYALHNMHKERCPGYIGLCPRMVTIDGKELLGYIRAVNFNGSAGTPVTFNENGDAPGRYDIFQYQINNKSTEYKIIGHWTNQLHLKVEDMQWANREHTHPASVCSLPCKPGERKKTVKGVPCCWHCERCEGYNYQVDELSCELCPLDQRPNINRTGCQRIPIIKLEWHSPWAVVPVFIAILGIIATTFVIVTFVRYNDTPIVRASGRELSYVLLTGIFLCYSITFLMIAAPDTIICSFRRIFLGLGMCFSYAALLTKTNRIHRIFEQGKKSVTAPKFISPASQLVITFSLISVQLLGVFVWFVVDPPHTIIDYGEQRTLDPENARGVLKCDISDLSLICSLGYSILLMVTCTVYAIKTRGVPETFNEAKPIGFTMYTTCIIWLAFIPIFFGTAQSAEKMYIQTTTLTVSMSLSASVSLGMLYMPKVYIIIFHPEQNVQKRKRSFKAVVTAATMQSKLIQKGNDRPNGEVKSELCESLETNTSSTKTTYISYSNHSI

Row | Structure (SMILES) | z-score
1 | Cc1ccc2nc(N3CCC(C(=O)N4CCC5(CC4)OCCO5)CC3)sc2c1 | active: 4.28
2 | CCCCn1c(O)c(C(CC)=Nc2ccc(OCC)cc2)c(=O)[nH]c1=O | -1.35
3 | C/C(=N\N1CCCCCC1)c1c(O)n(-c2ccc(C)cc2)c(=O)[nH]c1=O | -0.275
4 | CCCCCCC(N)CC(=O)O (stereo unspecified) | 0.181
5 | CCc1ccc(CNCCc2ccccc2F)cc1 | 1.1
6 | C=CCOC(=O)C1=C(C)OC(N)=C(C(=O)OCC)C12C(=O)N(CC(N)=O)c1ccccc12 (stereo unspecified) | -0.605
7 | CCOP(=O)(C(NC(=O)c1ccccc1Cl)=C(Cl)Cl)c1ccccc1 (stereo unspecified) | -0.0996
8 | COc1ccc2c(c1)c(C(=O)O)c(C)n2CC(C)C | -0.367
9 | COc1ccc(CCN(C)Cc2ccncc2)cc1OC | -0.229
10 | c1cncc(CNC2=NCCC2)c1 | -0.0881
11 | CCCCC(=O)N/N=C/c1c(O)n(CC)c(=S)n(CC)c1=O | 1.15
12 | CC(C)CC12CN3CCN(CC(C3)C1O)C2 (stereo unspecified) | -0.327
13 | Fc1ccc(Cn2nnnc2C(c2ccc(F)cc2)N2CC=C(c3ccc(F)cc3)CC2)cc1 (stereo unspecified) | -0.172
14 | CC(C)n1cc(C(=O)N(CC(=O)NC(C)(C)C)Cc2ccccc2)cn1 | 0.258
15 | COc1ccc(/C=C2/C(=O)NC(=O)N(c3ccc(C)c(C)c3)C2=O)cc1CN1C(=O)c2ccccc2C1=O | -0.202
16 | Cc1oc2ccc(OC(=O)N(C)C)cc2c1C(=O)OC(C)C | -0.541
17 | Cc1cc(C)c(S(=O)(=O)NCC2CCC(C(=O)N3CCC4(CC3)OCCO4)CC2)c(C)c1 (stereo unspecified) | -0.111
18 | COc1cc2c(cc1OC)C(C(=O)N(C)C1CCCCC1)C1CCCCN1C2=O (stereo unspecified) | -0.133
19 | C=CCn1c(O)c(C(C)=NCCCO)c(=O)[nH]c1=O | 0.182
20 | CCOC(=O)c1c(NC(=O)c2c(N)n(CCCOC)c3nc4ccccc4nc23)sc2c1CCCC2 | -0.769
21 | Cc1ccc(OP(=O)(NCc2ccccc2)Oc2ccc(C)cc2)cc1 | -0.00664
22 | CC(C)=CCC12CN3CCN(CC(C3)C1=O)C2 | 0.0294
23 | Cc1ccc(N2C(=O)NC(=O)/C(=C\C=C\c3ccco3)C2=O)cc1C | -0.569

Row | Structure (SMILES) | z-score
24 | CC(C)CCCn1c(O)c(/C=C2/C=CC=N2)c(=O)[nH]c1=O | -0.41
25 | CC/C(=N\Nc1ccccc1)c1c(O)n(C)c(=O)n(C)c1=O | -0.0457
26 | Clc1ccc(C(c2ccccc2)c2ncc[nH]2)cc1 (stereo unspecified) | 0.0215
27 | CCCCN1C(=O)NC(=O)C2(Cc3ccccc3N3CCOCC32)C1=O (stereo unspecified) | 0.172
28 | CN(C)P1(N(C)C)=Nc2c(c(N)nn2C)C(c2ccccc2)=N1 | 1.2
29 | CCN(CC)c1ccc(/C=C2\C(=O)NC(=O)N(Cc3ccco3)C2=O)cc1 | 0.131
30 | O=Cc1cn(Cc2ccc(F)cc2Cl)c2ccccc12 | -0.0777
31 | O=C1c2ccccc2C(=O)N1Cc1nc2ccccc2c(=O)n1-c1ccc(Br)cn1 | 0.157
32 | Cc1ccc(S(=O)(=O)N2CCCCC2)cc1NC(=O)CN1CC=C(c2ccccc2)CC1 | -0.105
33 | Cc1c(N=Nc2c(O)n(C)c(=O)n(C)c2=O)c(=O)n(-c2ccccc2)n1C | 0.279
34 | CCOC(=O)c1c(C)c(P(=S)(N2CCOCC2)N2CCOCC2)n(C)c1C | -0.197
35 | CC(=O)c1c(C)n(CCCOC(C)C)c2ccc(O)cc12 | -0.0672
36 | CCC1(CC)C(=O)NC(=Nc2cccc(C(F)(F)F)c2)NC1=O | 0.126
37 | CC(=NCc1ccco1)c1c(O)n(-c2ccccc2)c(=O)[nH]c1=O | -0.133
38 | C=CCn1c(O)c(C(CC)=NCCc2ccccc2)c(=O)[nH]c1=O | -0.31
39 | Cc1cc(C)cc(N2C(=O)NC(=O)/C(=C\c3cccn3-c3ccccc3)C2=O)c1 | -0.205
40 | Cc1cccc(C(=O)NC(Oc2ccccc2)C(Cl)(Cl)Cl)c1 (stereo unspecified) | -0.253
41 | CCS(=O)(=O)NCc1nnc2n1-c1ccc(Cl)cc1C(c1ccccc1)=NC2 | -0.148
42 | O=C(COc1ccc2ccccc2c1)N1CCN(CC2CC3C=CC2C3)CC1 (stereo unspecified) | 0.123
43 | CCC(=NCCOc1ccc(Cl)cc1)c1c(O)n(C)c(=O)n(C)c1=O | -0.392
44 | CC(C)Oc1ccc(CCN)cc1Cl | 0.137
45 | CCC1CCCCN1CC(=O)c1ccc(OC(F)F)cc1 (stereo unspecified) | -0.381
46 | Nc1nnc(CCN2CCCCC2)s1 | 0.564

Row | Structure (SMILES) | z-score
47 | CCCCn1c(O)c(C(CC)=NCCN2CCCCC2)c(=O)[nH]c1=O | -1.26
48 | O=c1c(/C=N/N2CCOCC2)c(O)n(-c2ccccc2)c(=S)n1-c1ccccc1 | 1.75
49 | O=c1c2cc(Cl)cc(Cl)c2nc(CN2CCOCC2)n1-c1ccccc1F | 0.342
50 | CCOC(=O)C1=C(C)OC(N)=C(C#N)C12C(=O)N(C)c1ccccc12 (stereo unspecified) | 0.0532
51 | NS(=O)(=O)c1ccc(N=Cc2c(O)n(C3CCCCC3)c(=O)n(C3CCCCC3)c2=O)cc1 | 0.651
52 | CCOc1ccccc1NC(=O)N1CCC2(CC1)OCCO2 | -0.318
53 | CCCCOc1ccc(CN2CCN(CCO)CC2)cc1 | -0.357
54 | COP(=O)(OC)C1(Nc2ccc(C)cc2)CCCCC1 | 0.118
55 | COc1ccc2c(c1)c(C(=O)CN1CCC3(CC1)OCCO3)c(C)n2Cc1ccccc1 | -0.618
56 | CCC(C)N1Cc2ccccc2C1=N (stereo unspecified) | -0.00471
57 | C=CCN1C(=O)C2(C(C(=O)OCC)=C(N)Oc3ccccc32)c2c1c1ccccc1oc2=O (stereo unspecified) | -0.513
58 | Cc1cccc(N2C(=O)NC(=O)/C(=C/c3ccc([N+](=O)[O-])o3)C2=O)c1 | -0.279
59 | Cc1cccnc1-n1c(C)nc2ccccc2c1=O | 0.284
60 | Cc1nc2ccccc2c(=O)n1-c1cccc(O)c1 | 0.425
61 | ON1C2CCCCC2N(O)C1c1ccccc1F (stereo unspecified) | 0.451
62 | Cn1cccc1/C=C1\C(=O)NC(=O)N(CCC2=CCCCC2)C1=O | -0.117
63 | CCCCC(=O)N/N=C/c1c(O)n(CC)c(=S)[nH]c1=O | 0.0587
64 | CN1C(=O)C(=CN2CCN(C(=O)c3ccco3)CC2)C(=O)N(C)C1=S | -0.612
65 | CSc1ncc(/C=C2/C(=O)NC(=O)N(C3CCCCC3)C2=O)cn1 | -0.17
66 | O=c1c2ccccc2nc(-c2ccoc2)n1-c1ccccc1 | -0.526
67 | COC(=O)C(O)(c1ccc(NC(=O)Oc2ccccc2)cc1)C(F)(F)F (stereo unspecified) | 0.925
68 | CN(C)C(=O)Nc1cccc(OC(=O)N(C)C)c1 | 0.313
69 | CC(Cc1ccccc1Sc1ccccc1O)N(C)C (stereo unspecified) | 0.996

Row | Structure (SMILES) | z-score
70 | COc1ccc(CC[n+]2cc(/N=C(\C)[O-])on2)cc1OC | 1.18
71 | COc1cc(Cn2c(N)c(C(=O)NCc3ccco3)c3nc4ccccc4nc32)cc(OC)c1OC | -0.195
72 | CC(C(=O)N1CCC2(CC1)OCCO2)C1Sc2ccccc2NC1=O (stereo unspecified) | 0.0805
73 | COc1cc(N2CCOCC2)ccc1C=C1C(=O)NC(=O)NC1=O | -0.374
74 | COc1ccc(N2CCN(C(CNC(=O)Oc3ccccc3)c3cccnc3)CC2)cc1 (stereo unspecified) | 0.515
75 | O=C(NCc1ccc(C(=O)N2CCC3(CC2)OCCO3)cc1)c1cccc(Br)c1 | -0.0131
76 | O=C(CCNS(=O)(=O)c1ccccc1)Nc1ccc(Cl)cc1C(=O)c1ccccc1 | -2.06
77 | Clc1ccc(C2N3CCCN23)c(Cl)c1 (stereo unspecified) | -0.425
78 | Cc1cc(C)c(-n2c(O)c(/C=N/N3CCCCC3c3cccnc3)c(=O)[nH]c2=O)c(C)c1 (stereo unspecified) | -0.531
79 | O=P(OCC(F)(F)C(F)F)(N1CCCCC1)N1CCCCC1 | -0.0155
80 | Cc1cc(/C=C2\C(=O)NC(=O)N(C)C2=O)c(C)n1-c1ccc2c(c1)OCO2 | -0.21
81 | CC(C)(C)OC(=O)c1c(N)n(Cc2ccco2)c2nc3ccccc3nc12 | -2.21
82 | CCC(C)n1c(O)c(C(c2ccccn2)c2c(O)n(C(C)CC)c(=S)[nH]c2=O)c(=O)[nH]c1=S (stereo unspecified) | -0.115
83 | CCCn1ncc(C(=O)O)c1C | 0.266
84 | COc1nc(NC(C)C)nc(NC(C)C)n1 | 0.518
85 | Nc1cc(N2CCNCC2)c([N+](=O)[O-])cc1Cl | -0.00369
86 | CC(C)CC(=O)NC(Oc1ccc(Cl)cc1)C(Cl)(Cl)Cl (stereo unspecified) | -0.379
87 | COc1ccc(-n2c(O)c(C(C)=NCCCn3ccnc3)c(=O)[nH]c2=O)cc1 | -0.0269
88 | CC(C)CCNC(=O)c1c(N)n(CC2CCCO2)c2nc3ccccc3nc12 (stereo unspecified) | 0.063
89 | Cc1nc2ccccc2c(=O)n1-c1ccccc1C(F)(F)F | 0.226
90 | Clc1ccc2c(N3CCNCC3)ccnc2c1 | 0.404
91 | Cc1ccc(N)c(C(=O)c2ccccc2)c1 | -0.804
92 | Cc1cc(C)cc(N2C(=O)NC(=O)/C(=C\c3cccn3-c3ccc(Cl)cc3)C2=O)c1 | 0.182

Row | Structure (SMILES) | z-score
93 | Cc1nc2cc(C(=O)N3CCC4(CC3)OCCO4)ccc2n1-c1cccc(F)c1 | -0.389
94 | Cc1ccc(N=Nc2c(O)[nH]c(=O)[nH]c2=O)c([N+](=O)[O-])c1 | -0.78
95 | Nc1c(C(=O)NCCCc2ccccc2)c2nc3ccccc3nc2n1Cc1cccs1 | 0.264
96 | Cc1nnc2ccc(N3CCN(C)CC3)nn12 | 0.579
97 | COP(=O)(CC(=O)O)c1ccccc1 (stereo unspecified) | 0.3
98 | CCN(CC)CCCN=C(C)c1c(O)n(-c2ccc(C)cc2)c(=O)[nH]c1=O | -0.346
99 | CC(C)N1C(=O)CC2(CC[N+](C)(CCOC(=O)C(O)(c3ccccc3)c3ccccc3)CC2)C1=O (stereo unspecified) | -0.0577
100 | O=[N+]([O-])c1ccc(N2CCNCC2)cc1NCc1ccco1 | 0.514
101 | COc1ccccc1NC1=NCCS1 | -0.101
102 | CC(C)(C)N1Cc2ccccc2C1=N | -0.0341
103 | O=c1[nH]c(=S)n(C2CC2)c(O)c1/C=N/N1CCOCC1 | -0.0931
104 | Cc1nn(Cc2ccc(Cl)cc2Cl)c(Cl)c1C(=O)NC1CCCc2ccccc21 (stereo unspecified) | -0.109
105 | COc1ccc(Cn2c(N)c(C(=O)NCc3ccco3)c3nc4ccccc4nc32)cc1 | 0.71
106 | Cc1cnn(C2CCN(C)CC2)c1N | 0.0341
107 | CCc1cccc(CC)c1NC(=S)N1CC2CC(C1)c1cccc(=O)n1C2 (stereo unspecified) | 0.0803
108 | Cc1ccc(NC(=O)CN2C(=O)CN=C(c3ccccc3)c3cc(Cl)ccc32)cc1 | 0.419
109 | CCN(CC)c1ccc(/C=N/c2sc3c(c2C#N)C2CCN3CC2)c(O)c1 | 0.201
110 | CN1CCN(c2cc(N3CCCC3)c([N+](=O)[O-])cc2F)CC1 | -0.391
111 | CC(NC(=O)Oc1ccccc1)C(c1cccs1)N1CCOCC1 (stereo unspecified) | -0.0704
